# Measured values published in PubChem BioAssay AID894 (National Center for Advancing Translational Sciences (NCATS), 2007).
# Several values for one entry are separate records, joined by “and”; a condition that tells them apart may be missing. Identical values can stand only once. Hit rate of the full screen: of about 150,000 compounds, about 6,500 (4.3%) were called active. Inconclusive results, whose numbers are uncertain, are shown with a selection of clear calls. The call rests on the fitted dose curve; in most records, active means well fitted inhibition curve with a large enough effect (not every such curve was filed as active); inconclusive means small, poorly fitted or top-dose-only effect, or another doubt; inactive means no such curve, though single readings can be large or run the other way. Potencies of inconclusive entries are left out as doubtful fits.
# Biological target: 15-hydroxyprostaglandin dehydrogenase [NAD(+)] (Homo sapiens) (UniProt P15428)
# Experiment: qHTS Assay for Inhibitors of HPGD (15-Hydroxyprostaglandin Dehydrogenase)
# Details: purified HPGD, NADH fluorescence kinetic, PGE2 substrate; activity change, negative = inhibition: stronger effect = lower value
# In short: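 NADH formation kinetics: reaction with 30 uM PGE2 and 1 mM NAD+ (final), 20 nM enzyme, Tris-HCl pH 8 with Tween 20, after 15 min compound preincubation at room temperature. Fluorescence change, last versus first of five reads.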
# On the % scale 0 is the no-effect control and ±100 the full control effect; potency means the concentration at half of the fitted maximal effect; tags describe the fitted curve by direction and shape.
# Sequence of UniProt P15428 (P15428 whole entry, looked up): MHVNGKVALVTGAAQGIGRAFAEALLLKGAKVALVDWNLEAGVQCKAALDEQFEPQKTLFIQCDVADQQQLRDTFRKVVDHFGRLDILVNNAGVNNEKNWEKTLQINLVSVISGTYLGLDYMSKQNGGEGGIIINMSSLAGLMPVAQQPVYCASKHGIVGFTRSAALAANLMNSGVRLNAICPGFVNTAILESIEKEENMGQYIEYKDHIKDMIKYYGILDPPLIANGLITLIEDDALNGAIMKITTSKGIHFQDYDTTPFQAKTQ
SMILES,Potency,"activity change, negative = inhibition"
COc1ccc(CNC(=O)c2ccccc2[N+](=O)[O-])cc1,active: 11.2 µM,–
Cc1cc(C)nc(NS(=O)(=O)c2ccc(NC(=O)Cn3c(=O)oc4ccccc43)cc2)n1,–,inactive: -12%
O=C(NCC1CCCO1)c1csc2c1CCCC2 (stereo not drawn),active: 20 µM,–
O=C1NN(c2ccc(Cl)c(Cl)c2)C(=O)/C1=C/c1cccc(OC(=O)c2cccs2)c1,active: 10 µM,–
O=C(COC(=O)Cc1ccccc1F)Nc1ccc2c(c1)OCCO2,"inconclusive [inhibitor, single point]",–
Cc1cccc(OCC(=O)N(C)CCc2ccccn2)c1,–,inactive: 1.13%
C=CCn1c(SCC(O)Cn2c3ccccc3c3ccccc32)nnc1-c1ccco1 (stereo not drawn),"inconclusive [inhibitor, partial curve]",–
COc1ccc(N=C(NN)c2ccc3ccccc3n2)cc1,"inconclusive [inhibitor, single point]",–
CCc1ccc(NSc2ccccc2[N+](=O)[O-])cc1,–,inactive: 0.247%
Cc1cccn2c(=O)c3cc(C(=O)NC(C)C)c(=N)n(Cc4ccncc4)c3nc12,"inconclusive [inhibitor, partial curve]",–
O=c1c2c(nc3cc(-c4ccccc4)[nH]n13)CCS2,"inconclusive [inhibitor, partial curve]",–
COc1ccc(-c2cc(C(=O)Nc3nc4c(C)cccc4s3)c3ccccc3n2)cc1OC,"inconclusive [inhibitor, partial curve]",–
Cc1ccc(-c2c(C(=O)NCc3ccc(F)cc3)oc(=O)c3ccccc23)cc1,–,inactive: -18.7%
Cc1ccc(Cn2c(/C=C/c3ccco3)nc3ccccc32)cc1,"inconclusive [inhibitor, partial curve]",–
N#Cc1ccc(CN2CCC3(CC2)CCN(C(=O)c2cc(C(F)(F)F)cc(C(F)(F)F)c2)CC3)cc1,–,inactive: -4.56%
O=C(O)CCC(NC(=O)c1cncc(O)c1)C(=O)O (stereo not drawn),"inconclusive [inhibitor, single point]",–
CSc1nc(N)nc(SCC(=O)Nc2cccc(F)c2)c1C#N,active: 20 µM,–
N#Cc1ccccc1Sc1ccccc1C(=O)OCc1nnc(-c2ccccc2)o1,active: 8.91 µM,–
CC(C)(C)c1ccc(OC2=CS(=O)(=O)c3ccccc32)cc1,"inconclusive [inhibitor, single point]",–
O=C(Cc1ccc(-n2c(=O)[nH]c3ccccc3c2=O)cc1)N1CCN(c2ccccc2)CC1,"inconclusive [inhibitor, single point]",–
N/C(=N\OC(=O)c1ccc(Cl)cc1Cl)c1ccccc1,active: 14.1 µM,–
O=C1c2cnc3nc(SCc4cccc(Cl)c4)nn3c2CC2c3ccccc3CCN12 (stereo not drawn),"inconclusive [inhibitor, partial curve]",–
CCn1c(C)c(C2=CCN(S(=O)(=O)c3ccc(C)cc3)CC2)c2ccccc21,–,inactive: -24.5%
COc1ccc(OC)c(-c2cc(C(=O)Nc3c(C)nn(Cc4ccc(Cl)cc4)c3C)no2)c1,"inconclusive [inhibitor, partial curve]",–
O=C(COc1ccc(Cl)cc1Cl)Nc1ccc(Cl)cn1,active: 8.91 µM,–

SMILES,Potency,"activity change, negative = inhibition"
COC(=O)C1=C(C)OC(N)=C(C#N)C1c1c(C)nn(C)c1C (stereo not drawn),"inconclusive [inhibitor, partial curve]",–
CCC(=O)Nc1nc(=S)ss1,active: 10 µM,–
CCCCC(=O)Nc1c(O)c2ccccc2[nH]c1=O,"inconclusive [inhibitor, partial curve]",–
Cc1ccc(CCNC(=O)C2CCN(S(=O)(=O)c3c(C)nn(C)c3C)CC2)cc1,"inconclusive [inhibitor, single point]",–
CCOC(=O)N1CCN(S(=O)(=O)c2ccc(C(=O)Nc3nc4ccccc4s3)cc2)CC1,"inconclusive [inhibitor, partial curve]",–
CCOc1ccc(NC(=S)Nc2ccc(C)c([N+](=O)[O-])c2)cc1,–,inactive: -1.21%
Cc1nnc(C)n1/N=C/c1ccc2c(c1)OCCO2,"inconclusive [inhibitor, partial curve]",–
CCc1nn2cc(C(=O)c3cc(Cl)ccc3O)cnc2c1-c1ccc(F)cc1,active: 15.8 µM,–
CCCC(=O)NCCc1ccc(S(N)(=O)=O)cc1,–,inactive: -11.8%
CC1(C)CC(=O)c2c(-c3cccs3)n[nH]c2C1,"inconclusive [inhibitor, partial curve]",–
Cc1cc(C(C)(C)C)nc2[nH]n(-c3ccccc3)c(=O)c12,active: 15.8 µM,–
CCOC(=O)c1sc2ncnc(NCc3ccco3)c2c1C,"inconclusive [inhibitor, partial curve]",–
O=C(/C=C/c1ccccc1)c1ccc(O)cc1,–,inactive: -19%
COc1ccc2c(c1)CCc1sc(NC(=O)c3ccco3)nc1-2,"inconclusive [inhibitor, partial curve, poor fit]",–
CCCCn1c(O)c(N=NC(=O)c2ccco2)c2ccccc21,–,inactive: -24.2%
C#CCSc1nc(-c2ccccc2)cc(C(F)(F)F)c1C#N,"inconclusive [inhibitor, partial curve]",–
Cc1c(C(=O)OC(C)C)sc(N)c1C(=O)OC(C)C,active: 22.4 µM,–
COc1cc(C(=O)N(Cc2cccnc2)Cc2cc3cc4c(cc3[nH]c2=O)OCCO4)cc(OC)c1OC,"inconclusive [inhibitor, partial curve]",–
COc1cccc(OC)c1-c1nn2c(-c3ccccc3Cl)nnc2s1,"inconclusive [inhibitor, partial curve]",–
COc1ccc(/C=N/c2oc(-c3ccccc3)cc2C#N)cc1OC,"inconclusive [inhibitor, partial curve]",–
COc1ccc(NC(=O)C2CCCCN2N)cc1OCC(C)C (stereo not drawn),–,inactive: -3.07%
CC1(C)CC(=O)C2=C(C1)Nc1[nH]c(=S)[nH]c(=O)c1C2c1ccccc1 (stereo not drawn),active: 8.91 µM,–
CCn1c(=NC(=O)c2ccc(N3C(=O)CCC3=O)cc2)sc2c(OC)ccc(OC)c21,"inconclusive [inhibitor, single point]",–
Cc1cc(N2CCOCC2)nc(SCc2ccc(Cl)cc2Cl)n1,–,inactive: -18.5%
CC(C)OC(=O)c1c2nc3ccccc3nc2n2c1[nH]c(=O)c1ccccc12,"inconclusive [inhibitor, partial curve]",–

SMILES,Potency,"activity change, negative = inhibition"
COc1ccc(CCN2C(=O)c3cccc4c(C(=O)N5CCCCC5)ccc(c34)C2=O)cc1OC,active: 12.6 µM,–
COc1ccc(Br)cc1C(=O)Nc1cc(C)cc(C)c1,–,inactive: -15%
CCCOc1c(Br)cc(/C=N/O)cc1OC,"inconclusive [inhibitor, partial curve]",–
CN1CCN(c2ccc(NC(=O)c3ccc4c(c3)[nH]c(=O)n4Cc3ccc(F)cc3)cc2)CC1,"inconclusive [inhibitor, partial curve, poor fit]",–
O=C(NC1CCCCC1)c1sc(=S)n2c1[nH]c(=O)c1ccccc12,active: 12.6 µM,–
C=CCN(C(=O)CNC(=O)c1ccco1)C(C(=O)NC1CCCCC1)c1ccc(OC)cc1 (stereo not drawn),–,inactive: -7.58%
CCN(CC)CCCNc1cc2n(c(=O)n1)CCc1cc(OC)c(OC)cc1-2,"inconclusive [inhibitor, partial curve]",–
Cc1ccccc1-n1nnnc1Sc1nnnn1-c1ccccc1,–,inactive: -1.4%
CCC1(C)Cc2c(sc3[nH]c(=O)[nH]c(=O)c23)CS1 (stereo not drawn),"inconclusive [inhibitor, partial curve]",–
Nc1[nH]c(=O)ncc1F,–,inactive: 2.38% and inactive: -5.43%
CCOc1ccc(-c2cc(CCCC(=O)NCc3cccnc3)no2)cc1,–,inactive: -16.2%
O=C(Nc1ccc(CN2CCOCC2)cc1)c1ccc(-c2cccc(Cl)c2)o1,"inconclusive [inhibitor, partial curve]",–
CN1/C(=C\C(=O)COc2ccc3c(c2)OCO3)C(C)(C)c2ccccc21,"inconclusive [inhibitor, partial curve]",–
Cc1ccc(CNC(=O)c2cc3c(=O)n4cccc(C)c4nc3n(CC3CCCO3)c2=N)cc1 (stereo not drawn),"inconclusive [inhibitor, partial curve]",–
O=C(Cc1cn2ccsc2n1)NCc1ccccc1,"inconclusive [inhibitor, single point]",–
CCCCS(=O)(=O)N1CCc2nc(-c3ccccc3)c3c(c2C1)CO[C@@H](C)C3,–,inactive: -12.2%
CCOc1ccc(C(c2c(NC(=O)c3ccccc3)sc(C)c2C)N2CCN(CCO)CC2)cc1 (stereo not drawn),"inconclusive [inhibitor, partial curve]",–
Cc1ccc(-n2c(=O)c(C#N)cc3c(=O)n4cccc(C)c4nc32)cc1,"inconclusive [inhibitor, full curve]",–
O=C(Oc1ccc(-c2cnc3ccccc3n2)cc1)c1ccc(Br)o1,"inconclusive [inhibitor, partial curve]",–
Cc1nc(NC(=O)C(Cl)Cl)sc1C(=O)N(C)C,–,inactive: -16.3%
COCCN1C(=O)N[C@@H](c2ccccc2)[C@H](C(=O)OC)[C@H]1C,–,inactive: -1.97%
COc1ccccc1Cn1c(=O)c2ccccc2n2c(Sc3ncnc4sccc34)nnc12,–,inactive: -22.7%
O=C1CC(c2ccccc2Cl)CC(O)=C1C=Nc1ccccc1 (stereo not drawn),–,inactive: -17.1%
